Results taken from PubChem BioAssay AID894 (National Center for Advancing Translational Sciences (NCATS), 2007).
Several values for one entry are separate records, joined by “and”; a condition that tells them apart may be missing. Identical values can stand only once. About 6,500 (4.3%) of roughly 150,000 compounds were called active. This list was built around the results that the source calls inconclusive (neither active nor inactive); the mix of calls is not that of the screen. Calls follow the shape of the dose curve; as a rule, active = well fitted inhibition curve with a large enough effect (not every such curve was filed as active); inconclusive = small, poorly fitted or top-dose-only effect, or another doubt; inactive = no such curve, though single readings can be large or run the other way. Potencies of inconclusive entries are doubtful fits and often do not repeat.

What follows are compounds tested against 15-hydroxyprostaglandin dehydrogenase [NAD(+)] (Homo sapiens) (UniProt P15428) (assay: qHTS Assay for Inhibitors of HPGD (15-Hydroxyprostaglandin Dehydrogenase)). Details: purified HPGD, NADH fluorescence kinetic, PGE2 substrate; activity change, negative = inhibition: hits give low values.
Chain of UniProt P15428 (P15428 whole entry, looked up): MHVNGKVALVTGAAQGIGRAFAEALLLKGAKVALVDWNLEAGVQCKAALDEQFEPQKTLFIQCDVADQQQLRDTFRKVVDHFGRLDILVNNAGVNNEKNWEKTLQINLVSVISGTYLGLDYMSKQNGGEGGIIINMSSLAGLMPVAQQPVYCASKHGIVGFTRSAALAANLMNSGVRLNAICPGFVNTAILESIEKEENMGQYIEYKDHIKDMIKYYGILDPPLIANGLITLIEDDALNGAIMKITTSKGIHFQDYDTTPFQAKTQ
In short: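 20 nM HPGD preincubated 15 min at room temperature with compound in 50 mM Tris-HCl pH 8, 0.01% Tween 20. Started with 1 mM NAD+ and 30 uM prostaglandin E2; NADH fluorescence (360/450 nm) read 5 times over 30-s intervals, last minus first.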
% is scaled to controls: 0 for no effect and ±100 for the full control effect; potency is read from the fitted curve at half-maximal effect; tags tell the direction and shape of the fitted curve.

Activity change, negative = inhibition, inactive:
O=S(=O)(Nc1nc2ccccc2nc1Nc1ccc(N2CCOCC2)cc1)c1cc(Cl)ccc1Cl -9.96%
CC(C)Cn1c(N)c(C(=O)CSc2ccc3c(c2)OCCO3)c(=O)n(C)c1=O -7.24%
Cc1cc(C)c(S(=O)(=O)c2ccccc2C)c(OCC(C)(C)C)n1 -14%
COC(=O)C1=C(C)N(Cc2ccccc2)C(=O)N[C@@H]1c1ccccc1 -2.68%
COc1nc(Cl)nc(Cl)c1Cl (tested in a mixture with another compound) -3.94%
CSc1ccc(OC2CCCCC2NS(=O)(=O)c2ccccc2)cc1 (centres undefined) -13.6%

Potency, inconclusive:
Cc1ccc(OCC(=O)Nc2ccc(-c3nc4ncccc4o3)cc2)c(C)c1 28.2 µM [inhibitor, partial curve]
O=C(Nc1ccc(-c2nnc(-c3ccccc3)o2)cc1)C1CCCO1 (centres undefined) 25.1 µM [inhibitor, partial curve]
COc1ccc(-n2c(-c3ccc(C)cc3)n[nH]c2=S)cc1 15.8 µM [inhibitor, partial curve]
COCCN(CCOC)c1nc(N)c2c(N)nc3c(c2c1C#N)CC(=O)N3Cc1ccc(Cl)cc1 15.8 µM [inhibitor, partial curve]
CCOC(=O)c1c(NC(=O)c2cccs2)sc2c1CCC2 28.2 µM [inhibitor, partial curve]
CNc1oc(/C=C/c2ccccc2)nc1C#N 25.1 µM [inhibitor, partial curve]
CCN(CC)CCC[C@H](C)Nc1c2ccc(Cl)cc2nc2ccc(OC)cc12 15.8 µM [inhibitor, single point]
COc1ccc(/C=C/C(=O)OCC(=O)Nc2cc(C(F)(F)F)ccc2Cl)cc1 22.4 µM [inhibitor, single point]
Cc1cccc(Sc2c(C=O)c3ccccc3n2C)c1 31.6 µM [inhibitor, single point]
O=c1c(O)c(-c2ccc(O)c(O)c2)oc2cc(O)ccc12 8.91 µM [inhibitor, partial curve] and 31.6 µM [inhibitor, partial curve]
CCc1ccc2nc(NC(=O)c3cc(C)on3)sc2c1 35.5 µM [inhibitor, partial curve]
CCOc1cc(-c2cc(-c3ccc(N)cc3)nc(N)c2C#N)ccc1O 14.1 µM [inhibitor, partial curve]

Potency, active:
Cn1c(C(=O)N2CCCc3ccccc32)cc2sccc21 15.8 µM
